± gives the standard deviation of the averaged measurements. Laboratory Escherichia coli strains with one amino-acid change in an essential protein, pooled on minimal glucose agar with carbenicillin or gentamicin at twice the control MIC (plus kanamycin and chloramphenicol for the plasmids), 48 h. Fold change of barcode share against drug-free plates; higher = less susceptible. Active = above 20 in both replicates (the paper's putatively resistant). '<' = one read or none on drug, '>' = one read or none on a drug-free plate. Shares are relative, so most strains fall below 1 when a few take over. Listed are strains with at least 15 reads on both drug-free plates, and hits; most hits rest on fewer reference reads. Replicate rank correlation about 0.5. Edits are read from barcodes.
B1: cysB V221Q (protein)
chain: MKLQQLRYIVEVVNHNLNVSSTAEGLYTSQPGISKQVRMLEDELGIQIFSRSGKHLTQVTPAGQEIIRIAREVLSKVDAIKSVAGEHTWPDKGSLYIATTHTQARYALPNVIKGFIERYPRVSLHMHQGSPTQIADAVSKGNADFAIATEALHLYEDLVMLPCYHWNRAIVVTPDHPLAGKKAITIEELAQYPLVTYTFGFTGRSELDTAFNRAGLTPRIQFTATDADVIKTYVRLGLGVGVIASMAVDPVADPDLVRVDAHDIFSHSTTKIGFRRSTFLRSYMYDFIQRFAPHLTRDVVDAAVALRSNEEIEVMFKDIKLPEK
B2: cysB F222A (protein)
chain: MKLQQLRYIVEVVNHNLNVSSTAEGLYTSQPGISKQVRMLEDELGIQIFSRSGKHLTQVTPAGQEIIRIAREVLSKVDAIKSVAGEHTWPDKGSLYIATTHTQARYALPNVIKGFIERYPRVSLHMHQGSPTQIADAVSKGNADFAIATEALHLYEDLVMLPCYHWNRAIVVTPDHPLAGKKAITIEELAQYPLVTYTFGFTGRSELDTAFNRAGLTPRIVATATDADVIKTYVRLGLGVGVIASMAVDPVADPDLVRVDAHDIFSHSTTKIGFRRSTFLRSYMYDFIQRFAPHLTRDVVDAAVALRSNEEIEVMFKDIKLPEK
B3: cysB V221D (protein)
chain: MKLQQLRYIVEVVNHNLNVSSTAEGLYTSQPGISKQVRMLEDELGIQIFSRSGKHLTQVTPAGQEIIRIAREVLSKVDAIKSVAGEHTWPDKGSLYIATTHTQARYALPNVIKGFIERYPRVSLHMHQGSPTQIADAVSKGNADFAIATEALHLYEDLVMLPCYHWNRAIVVTPDHPLAGKKAITIEELAQYPLVTYTFGFTGRSELDTAFNRAGLTPRIDFTATDADVIKTYVRLGLGVGVIASMAVDPVADPDLVRVDAHDIFSHSTTKIGFRRSTFLRSYMYDFIQRFAPHLTRDVVDAAVALRSNEEIEVMFKDIKLPEK
B4: cysB M315W (protein)
chain: MKLQQLRYIVEVVNHNLNVSSTAEGLYTSQPGISKQVRMLEDELGIQIFSRSGKHLTQVTPAGQEIIRIAREVLSKVDAIKSVAGEHTWPDKGSLYIATTHTQARYALPNVIKGFIERYPRVSLHMHQGSPTQIADAVSKGNADFAIATEALHLYEDLVMLPCYHWNRAIVVTPDHPLAGKKAITIEELAQYPLVTYTFGFTGRSELDTAFNRAGLTPRIVFTATDADVIKTYVRLGLGVGVIASMAVDPVADPDLVRVDAHDIFSHSTTKIGFRRSTFLRSYMYDFIQRFAPHLTRDVVDAAVALRSNEEIEVWFKDIKLPEK
B5: cysB F316P (protein)
chain: MKLQQLRYIVEVVNHNLNVSSTAEGLYTSQPGISKQVRMLEDELGIQIFSRSGKHLTQVTPAGQEIIRIAREVLSKVDAIKSVAGEHTWPDKGSLYIATTHTQARYALPNVIKGFIERYPRVSLHMHQGSPTQIADAVSKGNADFAIATEALHLYEDLVMLPCYHWNRAIVVTPDHPLAGKKAITIEELAQYPLVTYTFGFTGRSELDTAFNRAGLTPRIVFTATDADVIKTYVRLGLGVGVIASMAVDPVADPDLVRVDAHDIFSHSTTKIGFRRSTFLRSYMYDFIQRFAPHLTRDVVDAAVALRSNEEIEVMPKDIKLPEK
B6: cysB M315Q (protein)
chain: MKLQQLRYIVEVVNHNLNVSSTAEGLYTSQPGISKQVRMLEDELGIQIFSRSGKHLTQVTPAGQEIIRIAREVLSKVDAIKSVAGEHTWPDKGSLYIATTHTQARYALPNVIKGFIERYPRVSLHMHQGSPTQIADAVSKGNADFAIATEALHLYEDLVMLPCYHWNRAIVVTPDHPLAGKKAITIEELAQYPLVTYTFGFTGRSELDTAFNRAGLTPRIVFTATDADVIKTYVRLGLGVGVIASMAVDPVADPDLVRVDAHDIFSHSTTKIGFRRSTFLRSYMYDFIQRFAPHLTRDVVDAAVALRSNEEIEVQFKDIKLPEK
B7: cysB F316D (protein)
chain: MKLQQLRYIVEVVNHNLNVSSTAEGLYTSQPGISKQVRMLEDELGIQIFSRSGKHLTQVTPAGQEIIRIAREVLSKVDAIKSVAGEHTWPDKGSLYIATTHTQARYALPNVIKGFIERYPRVSLHMHQGSPTQIADAVSKGNADFAIATEALHLYEDLVMLPCYHWNRAIVVTPDHPLAGKKAITIEELAQYPLVTYTFGFTGRSELDTAFNRAGLTPRIVFTATDADVIKTYVRLGLGVGVIASMAVDPVADPDLVRVDAHDIFSHSTTKIGFRRSTFLRSYMYDFIQRFAPHLTRDVVDAAVALRSNEEIEVMDKDIKLPEK
B8: cysB F316W (protein)
chain: MKLQQLRYIVEVVNHNLNVSSTAEGLYTSQPGISKQVRMLEDELGIQIFSRSGKHLTQVTPAGQEIIRIAREVLSKVDAIKSVAGEHTWPDKGSLYIATTHTQARYALPNVIKGFIERYPRVSLHMHQGSPTQIADAVSKGNADFAIATEALHLYEDLVMLPCYHWNRAIVVTPDHPLAGKKAITIEELAQYPLVTYTFGFTGRSELDTAFNRAGLTPRIVFTATDADVIKTYVRLGLGVGVIASMAVDPVADPDLVRVDAHDIFSHSTTKIGFRRSTFLRSYMYDFIQRFAPHLTRDVVDAAVALRSNEEIEVMWKDIKLPEK
B9: cysB F316Q (protein)
chain: MKLQQLRYIVEVVNHNLNVSSTAEGLYTSQPGISKQVRMLEDELGIQIFSRSGKHLTQVTPAGQEIIRIAREVLSKVDAIKSVAGEHTWPDKGSLYIATTHTQARYALPNVIKGFIERYPRVSLHMHQGSPTQIADAVSKGNADFAIATEALHLYEDLVMLPCYHWNRAIVVTPDHPLAGKKAITIEELAQYPLVTYTFGFTGRSELDTAFNRAGLTPRIVFTATDADVIKTYVRLGLGVGVIASMAVDPVADPDLVRVDAHDIFSHSTTKIGFRRSTFLRSYMYDFIQRFAPHLTRDVVDAAVALRSNEEIEVMQKDIKLPEK
B10: cysB V221P (protein)
chain: MKLQQLRYIVEVVNHNLNVSSTAEGLYTSQPGISKQVRMLEDELGIQIFSRSGKHLTQVTPAGQEIIRIAREVLSKVDAIKSVAGEHTWPDKGSLYIATTHTQARYALPNVIKGFIERYPRVSLHMHQGSPTQIADAVSKGNADFAIATEALHLYEDLVMLPCYHWNRAIVVTPDHPLAGKKAITIEELAQYPLVTYTFGFTGRSELDTAFNRAGLTPRIPFTATDADVIKTYVRLGLGVGVIASMAVDPVADPDLVRVDAHDIFSHSTTKIGFRRSTFLRSYMYDFIQRFAPHLTRDVVDAAVALRSNEEIEVMFKDIKLPEK
B11: cysC V29D (protein)
chain: MALHDENVVWHSHPVTVQQRELHHGHRGDVLWFTGLSGSGKSTVAGALEEALHKLGVSTYLLDGDNVRHGLCSDLGFSDADRKENIRRVGEVANLMVEAGLVVLTAFISPHRAERQMVRERVGEGRFIEVFVDTPLAICEARDPKGLYKKARAGELRNFTGIDSVYEAPESAEIHLNGEQLVTNLVQQLLDLLRQNDIIRS
B12: cysC V102W (protein)
chain: MALHDENVVWHSHPVTVQQRELHHGHRGVVLWFTGLSGSGKSTVAGALEEALHKLGVSTYLLDGDNVRHGLCSDLGFSDADRKENIRRVGEVANLMVEAGLWVLTAFISPHRAERQMVRERVGEGRFIEVFVDTPLAICEARDPKGLYKKARAGELRNFTGIDSVYEAPESAEIHLNGEQLVTNLVQQLLDLLRQNDIIRS
B13: cysC F33A (protein)
chain: MALHDENVVWHSHPVTVQQRELHHGHRGVVLWATGLSGSGKSTVAGALEEALHKLGVSTYLLDGDNVRHGLCSDLGFSDADRKENIRRVGEVANLMVEAGLVVLTAFISPHRAERQMVRERVGEGRFIEVFVDTPLAICEARDPKGLYKKARAGELRNFTGIDSVYEAPESAEIHLNGEQLVTNLVQQLLDLLRQNDIIRS
B14: cysC L31Q (protein)
chain: MALHDENVVWHSHPVTVQQRELHHGHRGVVQWFTGLSGSGKSTVAGALEEALHKLGVSTYLLDGDNVRHGLCSDLGFSDADRKENIRRVGEVANLMVEAGLVVLTAFISPHRAERQMVRERVGEGRFIEVFVDTPLAICEARDPKGLYKKARAGELRNFTGIDSVYEAPESAEIHLNGEQLVTNLVQQLLDLLRQNDIIRS
B15: cysC V102D (protein)
chain: MALHDENVVWHSHPVTVQQRELHHGHRGVVLWFTGLSGSGKSTVAGALEEALHKLGVSTYLLDGDNVRHGLCSDLGFSDADRKENIRRVGEVANLMVEAGLDVLTAFISPHRAERQMVRERVGEGRFIEVFVDTPLAICEARDPKGLYKKARAGELRNFTGIDSVYEAPESAEIHLNGEQLVTNLVQQLLDLLRQNDIIRS
B16: cysC V102A (protein)
chain: MALHDENVVWHSHPVTVQQRELHHGHRGVVLWFTGLSGSGKSTVAGALEEALHKLGVSTYLLDGDNVRHGLCSDLGFSDADRKENIRRVGEVANLMVEAGLAVLTAFISPHRAERQMVRERVGEGRFIEVFVDTPLAICEARDPKGLYKKARAGELRNFTGIDSVYEAPESAEIHLNGEQLVTNLVQQLLDLLRQNDIIRS

Target: Escherichia coli (laboratory strain)
Assay: barcode share on antibiotic plates over drug-free plates; higher = less susceptible
Method: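 A pool of E. coli strains, each edited to carry one amino-acid change in an essential protein, was grown for 48 h on minimal glucose agar with or without antibiotic; strain barcodes were sequenced; mean of two replicates.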

[1] = antibiotic: carbenicillin, 2× MIC (3.1 µg/mL)
[2] = antibiotic: gentamicin, 2× MIC (MIC 0.45 µg/mL)

| Protein | fold change of barcode share [1] | fold change of barcode share [2] |
| --- | --- | --- |
| B1 | 0.237 ± 0.12 | 0.00915 ± 0.0032 |
| B2 | 0.194 ± 0.0041 | – |
| B3 | 0.245 ± 0.13 | – |
| B4 | 0.355 ± 0.19 | < 0.0148 |
| B5 | 0.268 ± 0.019 | – |
| B6 | 0.214 ± 0.061 | < 0.0109 |
| B7 | 0.128 ± 0.062 | – |
| B8 | 0.241 ± 0.2 | – |
| B9 | 0.286 ± 0.0029 | < 0.0175 |
| B10 | 0.23 ± 0.042 | – |
| B11 | 0.464 ± 0.18 | < 0.012 |
| B12 | 1.06 ± 0.52 | – |
| B13 | > 39.5 [active] | – |
| B14 | 0.454 ± 0.14 | 0.00813 ± 0.0063 |
| B15 | 0.991 ± 0.17 | 0.0235 ± 0.026 |
| B16 | 0.672 ± 0.29 | < 0.00843 |
